Test results published in the supplement of paper PMC10126150.
Sequences with one replicate were seen in a single cluster, so their values are uncertain.

System: ATP
Assay: switch fluorescence ratio, 500 uM ATP over buffer (Cy3 cluster intensity, sum of 5 cycles each) (fold (ratio)); higher = stronger signal-on switching upon ATP binding; sequences stand for … in TCGTCGGCAGCGTCAGATGTGTATAAGAGACAGTTTTTTTTTTTTTTTTTTTTTTTTT…TC
Settings: aptamer strand: ATP DNA aptamer (quencher-CACCTGGGGGAGTATTGCGGAGGAAGG + anchor), 100 nM annealed; ATP concentration: 500 uM; one replicate
Outline: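 Exposure to 500 uM ATP lasted 15 min at 22 °C before imaging, and a selection-buffer image was taken beforehand, for Cy3-labelled switching-strand clusters on a modified Illumina MiSeq flow-cell annealed to 100 nM quencher-labelled ATP aptamer. Five buffer/ATP cycles were run with NaOH stripping and re-annealing between them. The fluorescence ratio per cluster is summed target-cycle over summed buffer-cycle Cy3 intensity, averaged per switch-domain sequence. Clusters outside 100-1000 RFU were excluded.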

Q: AATAATGGGT was tested. Which switch fluorescence ratio did it give?
A: 1.03

Q: Which switch fluorescence ratio does the source give for GTCGTAGTGG here?
A: 0.985

Q: How did the switch fluorescence ratio turn out when TTGGATACA was run?
A: 1.02

Q: How did the switch fluorescence ratio turn out when ACCTTAGTG was run?
A: 0.983

Q: Which switch fluorescence ratio does the source give for TGAACATTAA here?
A: 1

Q: With TCCCCTTCCA as the sequence, how does the switch fluorescence ratio read?
A: 1.05

Q: How did the switch fluorescence ratio turn out when CTGATATGAT was run?
A: 1

Q: CCGCCTTTCA was tested. Which switch fluorescence ratio did it give?
A: 1.04

Q: How did the switch fluorescence ratio turn out when GCCTAGTGTC was run?
A: 1.14

Q: CAAGTTAACA was tested. Which switch fluorescence ratio did it give?
A: 1

Q: With TACAGAATAT as the sequence, how does the switch fluorescence ratio read?
A: 0.993

Q: For GAGGCTTTAT, which switch fluorescence ratio is on record?
A: 1.01

Q: Which switch fluorescence ratio does the source give for TATATAACCC here?
A: 0.977

Q: For AATTTCGTTC, which switch fluorescence ratio is on record?
A: 1.09

Q: How did the switch fluorescence ratio turn out when AATCTCATA was run?
A: 1.02

Q: For TATTGTCCGG, which switch fluorescence ratio is on record?
A: 1

Q: For GCGATTGTA, which switch fluorescence ratio is on record?
A: 0.985

Q: Which switch fluorescence ratio does the source give for GTTGATTCAT here?
A: 1

Q: TACTTCCGCT was tested. Which switch fluorescence ratio did it give?
A: 1.32

Q: GGCGCAGCTT was tested. Which switch fluorescence ratio did it give?
A: 0.97

Q: With CGGATTAAAT as the sequence, how does the switch fluorescence ratio read?
A: 1

Q: For AAGGGCAGAC, which switch fluorescence ratio is on record?
A: 1.11

Q: GTGCTCGGAT was tested. Which switch fluorescence ratio did it give?
A: 0.964

Q: Which switch fluorescence ratio does the source give for ACGTTATCCT here?
A: 1.18

Q: How did the switch fluorescence ratio turn out when CTAAGGCTAG was run?
A: 0.978

Q: For GGGTAAGAGG, which switch fluorescence ratio is on record?
A: 1.03

Q: Which switch fluorescence ratio does the source give for GATTGTCATA here?
A: 1.01

Q: How did the switch fluorescence ratio turn out when ACGGGTTAG was run?
A: 1

Q: Which switch fluorescence ratio does the source give for GGTACCCGGA here?
A: 1.01

Q: With CGAAACTTTT as the sequence, how does the switch fluorescence ratio read?
A: 1.04

Q: For CCACGATGTT, which switch fluorescence ratio is on record?
A: 1.03

Q: TGGGGCTGAT was tested. Which switch fluorescence ratio did it give?
A: 0.992

Q: For AAAACTTACG, which switch fluorescence ratio is on record?
A: 1.19

Q: Which switch fluorescence ratio does the source give for ATTGTATGCT here?
A: 0.999

Q: Which switch fluorescence ratio does the source give for TTATATTCTA here?
A: 0.985

Q: AAGGATGCAA was tested. Which switch fluorescence ratio did it give?
A: 1.04

Q: How did the switch fluorescence ratio turn out when TGGCGTCCGG was run?
A: 0.988

Q: How did the switch fluorescence ratio turn out when CCCCGAGAAC was run?
A: 2.93

Q: With GCCTCTCTAC as the sequence, how does the switch fluorescence ratio read?
A: 1.33

Q: CGAAGCAGAT was tested. Which switch fluorescence ratio did it give?
A: 4.88

Q: How did the switch fluorescence ratio turn out when CGGAGGACAG was run?
A: 1.03

Q: How did the switch fluorescence ratio turn out when GTTAATTT was run?
A: 0.994

Q: Which switch fluorescence ratio does the source give for TGCATTTGTA here?
A: 1.01

Q: With TGAACGGGAA as the sequence, how does the switch fluorescence ratio read?
A: 1.05

Q: For ACGAGAAACA, which switch fluorescence ratio is on record?
A: 1.04

Q: ATCCAACCGA was tested. Which switch fluorescence ratio did it give?
A: 1.06

Q: With GTAAAGTGTA as the sequence, how does the switch fluorescence ratio read?
A: 0.983

Q: TCAAAAGTAT was tested. Which switch fluorescence ratio did it give?
A: 0.968

Q: For CTGGCCGCCA, which switch fluorescence ratio is on record?
A: 1.08

Q: With TCGAAATCAA as the sequence, how does the switch fluorescence ratio read?
A: 0.985

Q: With CATTGTGGTG as the sequence, how does the switch fluorescence ratio read?
A: 1

Q: GTGATTAGTG was tested. Which switch fluorescence ratio did it give?
A: 1

Q: How did the switch fluorescence ratio turn out when TTGGGGACTA was run?
A: 1.03

Q: With CATCTGATTG as the sequence, how does the switch fluorescence ratio read?
A: 1.02

Q: How did the switch fluorescence ratio turn out when TTGATTACGT was run?
A: 0.98

Q: How did the switch fluorescence ratio turn out when GTCATGGGTT was run?
A: 1.02

Q: How did the switch fluorescence ratio turn out when TGCGGAATCT was run?
A: 1.06

Q: GGGGGTACTC was tested. Which switch fluorescence ratio did it give?
A: 0.986

Q: With ATTCCTGTTG as the sequence, how does the switch fluorescence ratio read?
A: 1.04

Q: With GCGTGGCGGG as the sequence, how does the switch fluorescence ratio read?
A: 0.996

Q: How did the switch fluorescence ratio turn out when AGATGGTTCG was run?
A: 1.01

Q: For GAATCAGGCC, which switch fluorescence ratio is on record?
A: 1.02

Q: CGAACTCGCC was tested. Which switch fluorescence ratio did it give?
A: 1.1

Q: With CAATTAGCGA as the sequence, how does the switch fluorescence ratio read?
A: 1.08

Q: Which switch fluorescence ratio does the source give for AAAGATCGTA here?
A: 1.03

Q: How did the switch fluorescence ratio turn out when CGTTGGAGGT was run?
A: 0.982

Q: Which switch fluorescence ratio does the source give for CTTTTGGCGT here?
A: 1.02

Q: With AAATGCCGAC as the sequence, how does the switch fluorescence ratio read?
A: 0.977

Q: How did the switch fluorescence ratio turn out when ACACTATGTG was run?
A: 0.953

Q: Which switch fluorescence ratio does the source give for TATTGTTACG here?
A: 1.02

Q: ATAATGCA was tested. Which switch fluorescence ratio did it give?
A: 1.02

Q: GGGATTTAA was tested. Which switch fluorescence ratio did it give?
A: 0.968

Q: CATGTGTGGC was tested. Which switch fluorescence ratio did it give?
A: 1.02

Q: TGTTTGAGTG was tested. Which switch fluorescence ratio did it give?
A: 1.05

Q: GGGGACGCGC was tested. Which switch fluorescence ratio did it give?
A: 0.982

Q: For TTCAATGTTG, which switch fluorescence ratio is on record?
A: 0.979

Q: Which switch fluorescence ratio does the source give for ATTGGCTAAA here?
A: 1.05

Q: Which switch fluorescence ratio does the source give for AGGGCTGCTT here?
A: 1.07

Q: TGAAGGGAGT was tested. Which switch fluorescence ratio did it give?
A: 0.933

Q: For AAATTGGTCG, which switch fluorescence ratio is on record?
A: 1.07

Q: AAAACGAGC was tested. Which switch fluorescence ratio did it give?
A: 1.1

Q: Which switch fluorescence ratio does the source give for CCCCGGCTTT here?
A: 1.11

Q: With AAGGACGTGC as the sequence, how does the switch fluorescence ratio read?
A: 1.07

Q: TCCCCTGAAC was tested. Which switch fluorescence ratio did it give?
A: 1.14

Q: TGTGGCTCAG was tested. Which switch fluorescence ratio did it give?
A: 1.01
